# Laboratory results from article PMC4336329 (PLoS ONE, 2015).
# Among all 310,000 compounds or so, about 14,000 (4.5%) showed an effect of 50% or more. The effect is printed as a negative number. The list shows a part of the results.
# Target: human ether-à-go-go-related gene (hERG) potassium channel (human, UniProt Q12809)
# Experiment: primary screen, population patch clamp on CHO cells stably expressing hERG
# 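Note: peak tail current of the secondary pulse compared with the same well before compound.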
# Sequence of human ether-à-go-go-related gene (hERG) potassium channel (Q12809 whole entry, looked up): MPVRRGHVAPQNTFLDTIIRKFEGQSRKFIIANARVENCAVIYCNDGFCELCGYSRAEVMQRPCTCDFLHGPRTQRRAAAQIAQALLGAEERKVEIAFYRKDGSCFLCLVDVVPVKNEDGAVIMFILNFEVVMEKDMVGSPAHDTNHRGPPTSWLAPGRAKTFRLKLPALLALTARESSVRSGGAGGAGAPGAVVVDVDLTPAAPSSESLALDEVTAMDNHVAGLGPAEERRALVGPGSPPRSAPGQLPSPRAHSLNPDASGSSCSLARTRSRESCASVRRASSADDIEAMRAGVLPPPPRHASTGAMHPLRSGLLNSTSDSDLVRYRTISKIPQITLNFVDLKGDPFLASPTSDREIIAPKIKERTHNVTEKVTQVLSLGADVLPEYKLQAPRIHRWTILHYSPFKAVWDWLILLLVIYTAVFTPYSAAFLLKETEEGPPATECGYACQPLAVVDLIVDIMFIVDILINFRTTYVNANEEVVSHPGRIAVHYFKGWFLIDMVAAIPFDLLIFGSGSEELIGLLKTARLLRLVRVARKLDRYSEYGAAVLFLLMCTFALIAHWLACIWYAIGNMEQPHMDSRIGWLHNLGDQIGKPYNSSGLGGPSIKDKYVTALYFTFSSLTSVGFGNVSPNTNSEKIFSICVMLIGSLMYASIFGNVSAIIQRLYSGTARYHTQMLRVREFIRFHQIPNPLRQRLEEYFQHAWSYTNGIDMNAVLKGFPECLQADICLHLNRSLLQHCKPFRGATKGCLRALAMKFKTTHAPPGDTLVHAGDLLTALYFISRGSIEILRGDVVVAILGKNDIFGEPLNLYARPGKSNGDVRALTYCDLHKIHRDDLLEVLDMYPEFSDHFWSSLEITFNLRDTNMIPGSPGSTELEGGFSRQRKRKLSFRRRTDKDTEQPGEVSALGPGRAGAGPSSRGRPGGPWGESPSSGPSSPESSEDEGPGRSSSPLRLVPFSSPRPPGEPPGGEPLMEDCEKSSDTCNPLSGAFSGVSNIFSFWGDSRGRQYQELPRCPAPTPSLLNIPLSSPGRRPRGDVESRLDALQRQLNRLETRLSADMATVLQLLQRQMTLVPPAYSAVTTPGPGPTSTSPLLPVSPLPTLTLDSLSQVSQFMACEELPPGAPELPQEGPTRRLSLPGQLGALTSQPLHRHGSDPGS
row,Compound,"hERG current change (%, negative = inhibition) at 10uM [%]"
1,O=[N+]([O-])c1cc(S(=O)(=O)Nc2ccccc2)ccc1N1CCN(c2ccccc2)CC1,-3.6
2,O=C(c1ccc(Cl)cc1)N(Cc1cccs1)C1CCS(=O)(=O)C1 (centres unmarked),-24.4
3,Br.CCOC(=O)C(CC)(CCC(=O)OC)c1csc(Nc2ccccc2O)n1 (centres unmarked),4.16
4,C=CCn1c(SCc2ccc(C(=O)OC)cc2)nnc1-c1sc(N)nc1C,-8.5
5,O=C(NCC1CCCO1)C(=Cc1cccc([N+](=O)[O-])c1)C(=O)NCC1CCCO1 (centres unmarked),-12.2
6,CCn1cc(CNC(=O)c2ccc3nc(Cc4ccccc4F)oc3c2)cn1,11.2
7,CCOC(=O)c1c(C)[nH]c(C(=O)N/N=C\c2ccccc2O)c1C,-2.88
8,CNC(=O)COC(=O)CCC(=O)c1cccs1,-19.5
9,Cc1ccc(Cl)cc1N1CCN(S(=O)(=O)c2c(C)noc2C)CC1,-2.62
10,COc1cc(-c2nn3c(-c4cccc(C)c4)nnc3s2)cc(OC)c1OC,13.1
11,Cn1nc(C(=O)Nc2cccc(S(=O)(=O)N3CCCC3)c2)c2ccccc2c1=O,-4.87
12,COc1ccccc1CC(=O)NNS(=O)(=O)c1ccccc1[N+](=O)[O-],14.2
13,CC(=O)c1ccc(NC(=O)C2(c3ccccc3)CC2(Cl)Cl)cc1 (centres unmarked),-5.48
14,Cc1nn(-c2ccccc2)c(N2CCCC2)c1/C=N/NC(=O)C1CC1,-3.43
15,O=C(NCc1ccc(F)cc1)c1c(O)c2cccc3c2n(c1=O)CCC3,10
16,O=P(O)(O)O.Oc1ccc(Br)cc1/C=N/N1CCCCC1,-3.08
17,O=C(COC(=O)c1cc[n+]([O-])cc1)Nc1ccc([N+](=O)[O-])cc1Cl,-2.91
18,CN(C)C(=O)COC(=O)/C=C/c1cn(-c2ccccc2)nc1-c1cccs1,-9.03
19,Cc1ccc(C)c(Cn2nnc3c(=O)[nH]c(C(=O)NCC4CCCO4)nc32)c1 (centres unmarked),-9.9

row,Compound,"hERG current change (%, negative = inhibition) at 10uM [%]"
1,Cc1ccc(NC(=O)c2ncc(Cl)c(Cl)c2Cl)cc1C,10.1
2,CCCCCn1c(=O)[nH]c2cc(C(=O)NCCCN3CCCCC3C)ccc2c1=O (centres unmarked),-37.7
3,CCOC(=O)/C(C#N)=C1/C=Cc2ccccc2N1CC,-9.05
4,COc1cccc(CNCc2ccc(OC)cc2OC)c1.O=C(O)C(=O)O,-14.1
5,Cc1ccc(SCc2cn3ccccc3n2)cc1,-7.57
6,CC1(C)CC(=O)C(C(=O)/C=C/NCCc2ccccc2)C(=O)C1,1.14
7,CCNC(=S)Nc1ccc(C)c(S(=O)(=O)Nc2ccccc2OC)c1,-12.7
8,O=[N+]([O-])c1cc2c(cc1/C=N/Nc1nc(Nc3ccccc3)nc(N3CCCCC3)n1)OCO2,3.5
9,O=C(OCC(=O)N1CCc2ccccc2C1)c1cccs1,33.2
10,COCC(=O)Nc1cccc(C(F)(F)F)c1,-3.13
11,COc1cc2c(cc1OC)CN(S(C)(=O)=O)CC2,10.1
12,COc1ccccc1C(=O)n1nc(-c2ccco2)nc1N,9.08
13,O=C1c2oc3ccc(F)cc3c(=O)c2C(c2ccccc2)N1CC1CCCO1 (centres unmarked),-12.4
14,COc1ccc(N2C(=S)N=C(Nc3ccccc3)C23CCCCC3)cc1,16.3
15,COc1ccc(Cn2nnnc2C(c2ccc(N(C)C)cc2)N2CCC(C(N)=O)CC2)cc1 (centres unmarked),-25.3
16,COc1ccc(N(Cc2cc(=O)[nH]c3ccccc23)C(C)=O)cc1,1.79
17,COc1cc(OC)cc(C(=O)NNC(=O)c2cc(S(=O)(=O)N3CCOCC3)ccc2F)c1,-1.89
18,COc1ccc(OC)c(S(=O)(=O)NCc2nc3nc(C)cc(C)n3n2)c1,19.5
19,Cc1ccc(/C=N/n2c(C3CCCCC3)n[nH]c2=S)cc1,29.9

row,Compound,"hERG current change (%, negative = inhibition) at 10uM [%]"
1,CC1=C(C(=O)Nc2ccccc2Cl)C(c2ccc(N(C)C)cc2)NC(=O)N1 (centres unmarked),12.4
2,CNC(=O)c1[nH]cnc1C(=O)Nc1ccccc1OC,1.81
3,CC1=Nc2cccc3cccc(c23)N1C,-15.1
4,CCCOc1ccc(C(=O)OCC(=O)NCCc2ccc(OCC)c(OCC)c2)cc1OC,6.62
5,CCCN[C@H]1CCc2nc(N)sc2C1.Cl,20.3
6,CCCCNS(=O)(=O)c1ccc2nc(SCC(=O)c3ccc(C#N)cc3)[nH]c2c1,-11.7
7,Nc1c(/C=C2/C=CC(=O)C(O)=C2)c(=O)nc2sc(CC(=O)N3CCCC3)nn12,13.9
8,CCc1ccc(NC(=O)C2C3/C=C\CCCCC32)cc1 (centres unmarked),29.3
9,CCCCC1=CC2=CC(=O)C(C)(OC(=O)CC)C(=O)C2=CN1Cc1ccco1 (centres unmarked),-32
10,NNC(=S)Nc1ccc(S(=O)(=O)N2CCCCC2)cc1,11.7
11,COc1ccnc(Nc2cccc(C)c2)c1C#N,-35
12,CC(C)CCNC(=O)c1cc(S(=O)(=O)N2CCc3ccccc32)cn1C,10.2
13,Cl.c1ccc(N2CCN(c3nc(NCc4ccco4)c4ccccc4n3)CC2)cc1,-73.6
14,Cc1cc(=O)[nH]c(SCC(=O)c2ccccc2)c1C#N,-8.43
15,Cc1cccc(Nc2ccc(S(=O)(=O)N3CCOCC3)cc2[N+](=O)[O-])c1,-30.2
16,CC(C)c1onc(C(=O)Nc2cccnc2Cl)c1[N+](=O)[O-],12.4
17,FC(F)(F)c1cnc(N2CCC(=NOCc3ccc(Cl)cc3)CC2)c(Cl)c1,29.6
18,Cc1ccc(NC(=O)C2CCN(S(=O)(=O)c3c(C)noc3/C=C/N(C)C)CC2)cc1,-5.19
